Among all 39,000 compounds or so, about 220 (0.56%) showed activity. The list shows a part of the results.
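Further: static incubation at 37 °C against the wild-type strain, values averaged over two biological replicates.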

The subject of this assay is Escherichia coli K-12 BW25113. The assay can be described thus: relative growth (OD600 normalised to plate interquartile mean) (fraction); higher = less growth inhibition, active = 0.2 or less. The note with it: 50 µM; LB; incubation time: overnight (16-24 h).
Turning to `C[C@@H]1CN([C@H](C)CO)C(=O)Cc2cc(NC(=O)c3ccncc3)ccc2O[C@H]1CN(C)S(=O)(=O)c1cccs1`, the relative growth is inactive: 0.971.

In the case of `COc1ccccc1S(=O)(=O)N(C)C[C@@H]1Oc2c(NC(=O)Nc3cccc4ccccc34)cccc2C(=O)N([C@@H](C)CO)C[C@H]1C`, the relative growth is inactive: 0.96. In the case of `COc1ccc(S(=O)(=O)Nc2ccc3c(c2)C(=O)N([C@@H](C)CO)C[C@H](C)[C@@H](CN(C)CC2CCCCC2)OCCCC[C@H](C)O3)cc1`, the relative growth is inactive: 0.986. In the case of `Cc1noc(C)c1NC(=O)Nc1ccc2c(c1)C(=O)N([C@@H](C)CO)C[C@@H](C)[C@@H](CN(C)S(=O)(=O)c1ccc(F)cc1)OCCCC[C@@H](C)O2` it was inactive: 1; in that of `CN(C)CCCNC(=O)C[C@@H]1CC[C@H]2[C@H](COc3ccc(NC(=O)c4ccccc4F)cc3C(=O)N2C)O1`, inactive: 0.979. In the case of `C[C@H](CO)N1C[C@H](C)[C@H](CN(C)S(=O)(=O)c2ccc(Cl)cc2)OCCCC[C@H](C)Oc2ccc(NC(=O)Nc3ccc4c(c3)OCO4)cc2C1=O`, the relative growth was inactive: 1.

Consider `Cc1ccc(S(=O)(=O)Nc2ccc3c(c2)C(=O)N([C@@H](C)CO)C[C@H](C)[C@H](CN(C)Cc2ccc4c(c2)OCO4)OCCCC[C@H](C)O3)cc1`, for which the relative growth was inactive: 1. For the compound `CC(=O)Nc1ccc(S(=O)(=O)NC(=O)Cn2nnc(COc3ccc(C)cc3)c2-c2ccccc2)cc1`, the relative growth was inactive: 0.974. Regarding `C[C@@H]1CN([C@@H](C)CO)C(=O)c2cccc(NC(=O)Nc3ccc(F)cc3)c2O[C@@H]1CN(C)CC1CCCCC1`, the relative growth is inactive: 0.964.

As for `O=C(O)[C@@H]1CC(=O)N(Cc2cccnc2)C1`, the relative growth was inactive: 0.973. The figure for `CC(=O)N(C)C[C@@H]1Oc2ncc(C#C[C@@H](C)O)cc2C(=O)N([C@@H](C)CO)C[C@H]1C` is inactive: 1.01; for `C[C@@H]1CN([C@@H](C)CO)C(=O)c2cc(NS(=O)(=O)c3ccc(F)cc3)ccc2O[C@@H](C)CCCCO[C@H]1CN(C)C(=O)Nc1ccc(F)cc1` it is inactive: 1.02. With `C[N+](C)(C)CCCCNC(=O)[C@@H]1C[C@@H]2C(=O)N[C@@H](CCCC[N+](C)(C)C)C(=O)N2[C@@H]1c1cccc(OCCO)c1`, the relative growth was inactive: 0.975. For the compound `CNC(=O)C[C@@H]1CC[C@H]2[C@@H](COC[C@H](O)CN2C(=O)c2ccc3c(c2)OCO3)O1`, the relative growth is inactive: 1.02.

As to `COc1ccc(S(=O)(=O)N(C)C[C@@H]2OCCCC[C@H](C)Oc3ccc(NC(=O)Nc4c(C)noc4C)cc3C(=O)N([C@@H](C)CO)C[C@@H]2C)cc1`, the relative growth is inactive: 0.988. In the case of `Cc1noc(C)c1S(=O)(=O)N(C)C[C@@H]1Oc2c(NC(=O)C3CCOCC3)cccc2C(=O)N([C@H](C)CO)C[C@@H]1C` it was inactive: 1.01.

These data come from the supplement of paper PMC9446081.
